Test results as given in the supplement of paper PMC4166925.
± gives the standard deviation of the averaged measurements. In all, about 33,000 sequences were measured (“E-score (dimensionless, -0.5 to 0.5)”: median about -0.046, highest 2% from about 0.36 on). The list shows a part of the results.

Test system: T1, SpTbr T-box DNA-binding domain (GST fusion)
T1 sequence: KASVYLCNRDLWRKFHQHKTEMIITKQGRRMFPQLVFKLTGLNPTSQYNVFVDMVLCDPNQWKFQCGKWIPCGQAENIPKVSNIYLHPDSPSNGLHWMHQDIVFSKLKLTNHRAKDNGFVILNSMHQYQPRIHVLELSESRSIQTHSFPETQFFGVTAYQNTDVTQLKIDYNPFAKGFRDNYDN
Assay: PBM E-score of 8-mer (E-score (dimensionless, -0.5 to 0.5)); Tbr is Tbrain of the sea star Patiria miniata (Pm) or the sea urchin Strongylocentrotus purpuratus (Sp); higher = stronger binding preference; most listed sequences are background and not binding sites
Conditions: the construct has about 5 more residues each side
Outline: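 Expression of GST-fused Tbr T-box DNA-binding domains, each holding the full T-box plus roughly five flanking residues, was carried out in BL21 E. coli at 20 °C, with purification by glutathione affinity chromatography. Universal Agilent arrays made double-stranded by primer extension were incubated with the protein at 200 nM in PBS (pH 7.5), then scanned and quantified. All ungapped 8-mers were scored from probe intensities, and each received an enrichment E-score from the Universal PBM Analysis Suite, averaged over duplicate arrays.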

Sequence | PBM E-score of 8-mer
CCAGGGGC | -0.195 ± 0.025
CTCACCTC | 0.444 ± 0.0047
ACGGAGGA | -0.045 ± 0.012
CCACATTA | 0.133 ± 0.051
CGCGAGTA | 0.292 ± 0.003
AACGACGG | 0.00558 ± 0.051
CCTCGGGC | -0.0663 ± 0.004
CATTGTGA | 0.127 ± 0.0013
GACCATGA | -0.0389 ± 0.054
CTAGTCGA | 0.123 ± 0.017
ACCAGACA | -0.148 ± 0.028
TGAATCCA | -0.147 ± 0.0028
CTGAACCA | -0.0511 ± 0.013
AAAAAGTC | -0.142 ± 0.038
AACGACAT | 0.0855 ± 0.049
CAACGAGC | 0.0183 ± 0.021
GTCCAAAA | -0.17 ± 0.012
AATCGTGC | 0.182 ± 0.029
CTTTCAGA | -0.135 ± 0.034
AAGGCTGC | -0.134 ± 0.011
TGCAGACA | 0.046 ± 0.017
CGCCAATA | 0.147 ± 0.062
ACTTACCT | 0.126 ± 0.041
CGACGGCG | 0.123 ± 0.027
AATGCCTA | 0.0332 ± 0.0033

Sequence | PBM E-score of 8-mer
GAAGTAAA | -0.281 ± 0.027
CTAGGCGC | 0.0427 ± 0.039
AGTGAGAC | 0.169 ± 0.04
TCATGGGA | -0.205 ± 0.051
CTATACCA | -0.159 ± 0.06
CGAGTCAG | -0.0765 ± 0.052
AGTAGTAT | -0.13 ± 0.036
GGACGTAC | -0.2 ± 0.012
AACTTGAT | -0.183 ± 0.035
CACTCCAG | 0.136 ± 0.035
ACAGCAGC | -0.0141 ± 0.052
CAGCTGAG | -0.0026 ± 0.071
CGAATTGA | -0.132 ± 0.024
GATTGCAC | 0.197 ± 0.015
CTCCACCC | 0.0474 ± 0.065
TGTGAAAA | 0.394 ± 0.048
ACATATAG | -0.142 ± 0.0068
AAGGAACT | -0.107 ± 0.0035
GATCAGGA | -0.0573 ± 0.01
GATAGATA | -0.198 ± 0.11
AAGATGGT | -0.0834 ± 0.071
ACAGGACT | -0.178 ± 0.0082
ACGTAAAG | -0.107 ± 0.031
AGTATTGA | -0.131 ± 0.045
CCTCTGCG | -0.0608 ± 0.038

Sequence | PBM E-score of 8-mer
AAACGACA | 0.158 ± 0.023
CGATTTTC | 0.0937 ± 0.0036
ACGCGTCG | 0.2872 ± 0.00053
CGCGTGTA | 0.0996 ± 0.044
CCTAGTCC | -0.175 ± 0.036
TCTGTACA | 0.0624 ± 0.018
AGATCTGA | -0.0464 ± 0.074
AAGGCGGG | 0.0185 ± 0.028
CTCAGCCC | -0.09624 ± 0.00049
GTCGCTCA | 0.0351 ± 0.12
TCCTTCAA | -0.229 ± 0.063
ACGATGTG | 0.258 ± 0.019
TCCATCCA | -0.126 ± 0.071
AGCTACGA | -0.00219 ± 0.041
CATTCTCC | 0.014 ± 0.11
ACCCCCCG | -0.0791 ± 0.031
ACTATTTC | -0.145 ± 0.082
GACTAGTA | -0.075 ± 0.066
CACTGTCG | 0.238 ± 0.036
GGCCAGCC | -0.26 ± 0.018
ACAAGCTC | 0.133 ± 0.034
CGAAGGAC | -0.0744 ± 0.041
ATTTATTA | -0.159 ± 0.029
TTTGAAAA | -0.208 ± 0.085
AATCAGAA | -0.095 ± 0.048

Sequence | PBM E-score of 8-mer
ATCTCCAT | -0.0861 ± 0.0063
AATTTGAG | -0.194 ± 0.037
GGACTGAC | -0.000535 ± 0.011
TGGACAAA | -0.0354 ± 0.075
CCACTGAC | 0.101 ± 0.0056
CCGTTTCG | -0.141 ± 0.013
AATTCGAC | -0.0571 ± 0.079
ACAGTTCG | 0.165 ± 0.021
CGCACCGA | 0.0672 ± 0.045
GATATCAC | 0.3 ± 0.021
CGTTGCAC | 0.094 ± 0.039
CTTGTGCA | -0.00134 ± 0.032
AGAGCGTA | -0.278 ± 0.12
TACGATGA | -0.0506 ± 0.02
ACCCTACC | -0.026 ± 0.0052
CCTGTAGC | 0.0675 ± 0.014
CTCTGGGC | -0.112 ± 0.012
GCCTTAAC | 0.127 ± 0.045
AGGGGTAA | -0.151 ± 0.032
AACACCGG | 0.118 ± 0.015
CGAGGCGC | 0.283 ± 0.015
AACCGGGG | -0.0647 ± 0.073
AATGACGC | 0.242 ± 0.043
GACGCGCA | -0.0276 ± 0.11
ATCGAGAG | 0.105 ± 0.035

Sequence | PBM E-score of 8-mer
AGTGAGCA | 0.116 ± 0.021
CGACGCGC | 0.176 ± 0.09
TATCATAA | -0.0751 ± 0.07
CGAACCGC | -0.091 ± 0.048
GCGCACAC | 0.161 ± 0.1
CGCAACGC | 0.0732 ± 0.015
ACAGTTTA | 0.161 ± 0.046
CAAGTCAC | 0.3 ± 0.032
GAGCACCC | -0.116 ± 0.053
GGGGATAC | -0.0955 ± 0.041
CAGATTTC | 0.0172 ± 0.052
CCTAGAGC | -0.0995 ± 0.036
CACGCCTA | 0.375 ± 0.016
CGGATTAC | -0.127 ± 0.026
GGCTTTCA | 0.0117 ± 0.036
GTTTCACA | 0.38 ± 0.012
CGTTGGAG | 0.0313 ± 0.053
ACGTGCCC | -0.0699 ± 0.022
GCCGCCCA | -0.173 ± 0.052
GACTGCCA | 0.172 ± 0.0054
AGTCAAAG | -0.166 ± 0.052
ACGCACAA | -0.0283 ± 0.052
AATGAAGG | -0.188 ± 0.031
CCTCGATA | -0.115 ± 0.0033
AGTCTGGA | -0.204 ± 0.054

Sequence | PBM E-score of 8-mer
GCTTCCTA | -0.188 ± 0.024
AACAAACG | -0.0941 ± 0.046
TCTCTACA | -0.0865 ± 0.0087
GCGGTCCC | -0.153 ± 0.022
TTAGGGAA | -0.198 ± 0.057
CAGAGAAC | -0.0778 ± 0.035
AGGCACGA | -0.0701 ± 0.047
ATGAAAGC | -0.0202 ± 0.081
GCTTGAAA | -0.115 ± 0.018
GCGCTTCC | 0.11 ± 0.028
ATAACGTC | -0.0443 ± 0.024
GGCAGACA | -0.0836 ± 0.051
GCCCCAAA | 0.11 ± 0.05
TCGCTTCA | 0.133 ± 0.037
CTTTGTCA | 0.215 ± 0.029
ACCGCAAG | 0.0125 ± 0.0041
GATCATAC | 0.0294 ± 0.025
AGGAATGG | -0.177 ± 0.0048
AGACTTCC | -0.1389 ± 0.00085
AATACACC | 0.0626 ± 0.014
CGACCTAG | 0.0184 ± 0.034
ATACAAGC | -0.0763 ± 0.051
CGACTGGC | 0.0378 ± 0.04
ACTTTATA | -0.0694 ± 0.018
ACATGTGA | 0.292 ± 0.054

Sequence | PBM E-score of 8-mer
CAGGGTGG | -0.011 ± 0.049
CTGTTGAC | 0.148 ± 0.038
CAAAATAA | -0.101 ± 0.024
ACGTCCTC | -0.019 ± 0.036
AGATACGC | 0.0233 ± 0.019
CACATATC | 0.32 ± 0.011
ATCTGAGA | -0.11 ± 0.092
ATTCTACC | -0.105 ± 0.03
GATGACCA | 0.0254 ± 0.0096
ATTGACTC | -0.0992 ± 0.08
ATGTTCGA | -0.129 ± 0.03
GTCAGGGA | -0.23 ± 0.047
AGCATAAC | -0.0666 ± 0.0083
GCTCGGTA | -0.159 ± 0.081
TACGGATA | -0.182 ± 0.13
GAATTGGC | -0.065 ± 0.0065
ATAAACAT | -0.0537 ± 0.084
GTATGCAA | -0.124 ± 0.037
ACCGTGTA | 0.056 ± 0.098
CAATCCAC | 0.0665 ± 0.047
TAAGCTGA | -0.159 ± 0.038
AACCGGTA | 0.000605 ± 0.066
